± gives the standard error. Variants at the background level are over-represented here.
B1: glmS ribozyme (parent)
chain: AUAAAAGCGCCAGAACUACAGAAAUGUAGUUGACGAGGAGGAGGUUUAUCGAAUUUUCGGCGGAUGCCUCCAAA

What was measured:
Conditions in all cases: with glucosamine-6-phosphate
[1] = variants of: B1; assay: self-cleavage kobs at 40 uM GlcN6P; higher = faster cleavage; RNA array
Method in brief: (§1)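 E. coli RNA polymerase transcribed barcoded ribozyme variants in situ on sequenced MiSeq chips, which were tracked via a hybridised Cy3 probe at 37 °C. Tiles were imaged over ~14 h after glucosamine-6-phosphate (40 μM to 10 mM) in HEPES/KCl/Mg(OAc)2 buffer was flowed in. Normalised per-tile medians were fit to one- or two-exponential decays for kobs, and kcat and KM came from weighted Michaelis–Menten fits.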

[2] = variants of: B1; assay: self-cleavage kobs at 160 uM GlcN6P; higher = faster cleavage; RNA array
Method in brief: as §1

[3] = variants of: B1; assay: self-cleavage kobs at 10000 uM GlcN6P; higher = faster cleavage; RNA array
Method in brief: as §1

[4] = variants of: B1; assay: self-cleavage kobs at 640 uM GlcN6P; higher = faster cleavage; RNA array
Method in brief: as §1

[5] = variants of: B1; assay: self-cleavage kobs at 2500 uM GlcN6P; higher = faster cleavage; RNA array
Method in brief: as §1

Variant	self-cleavage kobs at 40 uM GlcN6P [1] [s⁻¹]	self-cleavage kobs at 160 uM GlcN6P [2] [s⁻¹]	self-cleavage kobs at 10000 uM GlcN6P [3] [s⁻¹]	self-cleavage kobs at 640 uM GlcN6P [4] [s⁻¹]	self-cleavage kobs at 2500 uM GlcN6P [5] [s⁻¹]
G29U U49A	< 1e-05	< 1e-05	< 1e-05		
G29C C34G	< 1e-05		< 1e-05	< 1e-05	< 1e-05
C16U A52C	< 1e-05	< 1e-05			
G26U C50G	4.71e-05 ± 1.9e-05		3.96e-05 ± 1.3e-05		
C16U G63U C67U	< 1e-05				
A15U U49G A52C	< 1e-05				
C16A C58U	< 1e-05	< 1e-05	3.14e-05 ± 1.3e-05		
A15U G37C C71G	< 1e-05		< 1e-05		
U30A A42G C50U C70G	< 1e-05		< 1e-05		
G29U G35A	< 1e-05	< 1e-05		< 1e-05	< 1e-05
A15U U31G C71U	6.97e-05 ± 3.1e-05	6.51e-05 ± 1.8e-05		0.000238 ± 3.6e-05	0.000267 ± 6.8e-05
G29C G41C A42U G51U G62A	< 1e-05		< 1e-05	< 1e-05	< 1e-05
G29A C34A G38C G41A	< 1e-05			< 1e-05	
C16U U30G	4.04e-05 ± 1.4e-05	6.14e-05 ± 1.5e-05	0.00235 ± 0.00062	0.000244 ± 6.5e-05	0.000944 ± 0.00032
U30C A33G G66U C71G	< 1e-05		< 1e-05		
C16U U30A G40A	< 1e-05				
C16U U49G G62U	< 1e-05		< 1e-05		
G29C G32C U57G	< 1e-05				
U30C A42U C70A	< 1e-05				
G29U A53G C67G	5.1e-05 ± 1.8e-05	6.91e-05 ± 1.9e-05	0.000205 ± 4.9e-05	0.000108 ± 1.9e-05	0.000139 ± 3.6e-05
C16A A42C A52G	< 1e-05		< 1e-05		
C16U C34U G37A U46C	< 1e-05				
U30A G35A	< 1e-05	< 1e-05	< 1e-05	< 1e-05	< 1e-05
G29U U54A	0.000181 ± 1.9e-05	0.000284 ± 7.7e-05	0.0068 ± 0.00083	0.00184 ± 0.0003	0.00361 ± 0.0006
G29C A52G A53C	< 1e-05	< 1e-05	< 1e-05	< 1e-05	< 1e-05

Variant	self-cleavage kobs at 40 uM GlcN6P [1] [s⁻¹]	self-cleavage kobs at 160 uM GlcN6P [2] [s⁻¹]	self-cleavage kobs at 10000 uM GlcN6P [3] [s⁻¹]	self-cleavage kobs at 640 uM GlcN6P [4] [s⁻¹]	self-cleavage kobs at 2500 uM GlcN6P [5] [s⁻¹]
G29U A52C U57A	< 1e-05		< 1e-05		
C16U	0.000969 ± 1.7e-05	0.00308 ± 0.0002	0.0458 ± 0.0022	0.0121 ± 0.00055	0.0272 ± 0.0015
C16U C34U G43A U45A G51A	< 1e-05				
C16G G43U C71U	< 1e-05		< 1e-05	< 1e-05	
A15U U55G C61U	< 1e-05		< 1e-05		
U30A C71A	5.08e-05 ± 1.3e-05			0.000632 ± 0.0002	
U30A A42C	< 1e-05	< 1e-05	< 1e-05	< 1e-05	
U30A U46C G63C C67G	< 1e-05		< 1e-05	< 1e-05	< 1e-05
G29C G43U	< 1e-05		< 1e-05		< 1e-05
U30C C50A A53G U69C C70G	5.5e-05 ± 1.9e-05				
C16A G41A	< 1e-05				
C16A G66U	< 1e-05				
C16U G37A G41A U46C C71U	< 1e-05	< 1e-05			
C16G U31C U45C	< 1e-05				
A15U G43A G44U G62A	< 1e-05		< 1e-05		
G29C A42U U65C	< 1e-05				
C16A U65C	< 1e-05	< 1e-05		< 1e-05	
G29C G38C	< 1e-05				
A15U A39C G41C	< 1e-05			< 1e-05	< 1e-05
C16A A33G U45G	< 1e-05		< 1e-05		
C16A A48U A52C C61U U65A	< 1e-05		< 1e-05		
G29A C61G	< 1e-05		< 1e-05		
G29C U45G U47G A48C G62A C70U	< 1e-05		< 1e-05		
G29C A53G	4.79e-05 ± 7.8e-06	0.000154 ± 2.3e-05	0.00209 ± 0.00021	0.000398 ± 5.6e-05	0.000948 ± 0.00014

Source: the supplement of paper PMC7125110
